Assay results taken from PubChem BioAssay AID1159614 (National Center for Advancing Translational Sciences (NCATS), 2016).
The whole screen tested about 45,000 compounds, of which about 65 (0.1%) were called active. The call rests on the fitted dose curve; in most records, active means well fitted activation curve with a large enough effect; inconclusive means small, poorly fitted or top-dose-only effect; inactive means no such curve, though single readings can be large or run the other way. The list shows a part of the results.

Each compound was assayed against Galactocerebrosidase (Homo sapiens) (UniProt P54803) (assay: A Novel Cell-Based Assay to Identify Small Molecules for B -Galactocerebrosidase). Details: 145M-Twi-hGALC-G270D cells (Twitcher mouse brain line with human GALC G270D), HMU-beta-Gal fluorescence, 48 h; series mostly up to 57.5 µM; activation: at the top concentration.
Chain of UniProt P54803 (P54803 whole entry, looked up): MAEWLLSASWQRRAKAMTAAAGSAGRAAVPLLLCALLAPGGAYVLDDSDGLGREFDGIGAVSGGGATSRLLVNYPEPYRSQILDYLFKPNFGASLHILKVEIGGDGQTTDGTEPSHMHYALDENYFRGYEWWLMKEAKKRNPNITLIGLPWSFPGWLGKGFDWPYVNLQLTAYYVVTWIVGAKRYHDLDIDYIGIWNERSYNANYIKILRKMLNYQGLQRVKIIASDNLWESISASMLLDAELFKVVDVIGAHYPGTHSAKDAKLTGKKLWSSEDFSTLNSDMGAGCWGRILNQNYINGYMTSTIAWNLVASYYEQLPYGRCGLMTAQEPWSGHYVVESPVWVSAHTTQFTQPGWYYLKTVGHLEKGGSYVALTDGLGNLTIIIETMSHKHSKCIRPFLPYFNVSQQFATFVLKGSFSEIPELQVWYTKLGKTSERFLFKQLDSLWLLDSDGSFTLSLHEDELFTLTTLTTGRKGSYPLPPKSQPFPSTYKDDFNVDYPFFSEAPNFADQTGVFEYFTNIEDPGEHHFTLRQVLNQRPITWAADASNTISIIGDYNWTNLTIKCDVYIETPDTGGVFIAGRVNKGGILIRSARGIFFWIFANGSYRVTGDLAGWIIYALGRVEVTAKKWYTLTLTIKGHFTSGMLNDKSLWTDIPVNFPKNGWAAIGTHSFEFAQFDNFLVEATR
Outline: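 Fluorogenic HMU-b-Gal hydrolysis (0.1 mM final, pH 5.2 citrate-phosphate with 1 mg/mL sodium taurocholate; carbonate stop buffer) measures mutant GALC activity after compound treatment of live 145M-Twi Twitcher brain cells stably carrying human GALC-G270D, with wild-type GALC line alongside; activation sought.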
Further: 0% is about no effect; nearly all actives have a fitted effect of over 65% in size.

activation, inactive:
O=C(NCCc1ccccc1)C1(c2cccs2)CCOCC1 -1.53%, CC1(C)[C@@H](OC(=O)CCC(=O)O)CC[C@]2(C)[C@H]3C(=O)C=C4[C@@H]5C[C@@](C)(C(=O)O)CC[C@]5(C)CC[C@@]4(C)[C@]3(C)CC[C@@H]12 -11.6%, O=C(NCCc1ccccc1Cl)c1ccc2c(c1)nc1n2CCOC1 -3.66%, O=C(CSc1nc2c(c(=O)[nH]1)CN(Cc1ccc(F)cc1)CC2)Nc1ccccc1Cl -0.318%, CCOC(=O)C1CCN(S(=O)(=O)c2cc3c4c(c2)CC(=O)N4CCC3)CC1 -10.7%, CCCNC(=O)c1c(C)nn(-c2cccc(C)c2)c1-n1cccc1 -7.7%, CCc1nn(C(C)C(=O)N2CCN(c3cccc(C(F)(F)F)c3)CC2)c(=O)c2cc3occc3n12 (centres undefined) -15.1%, COc1cccc(C(=O)N2c3nc(-c4ccco4)nn3C3(CCCCC3)[C@@H]3CCCC[C@@H]32)c1 -5.57%, CCc1ccccc1NC(=O)CSCc1cnn(-c2ccccc2)c1-n1cccc1 -10.5%, Cc1ccc(Cn2cc(C(=O)c3ccc(F)cc3)c(=O)c3cc4c(cc32)OCCO4)cc1 -12.6%, COc1cc(OC)c(NC(=O)CC(c2cccs2)N2Cc3ccccc3C2=O)cc1Cl (centres undefined) -18.5%, Cc1ccccc1Nc1sc(C(=O)c2ccccc2)c(N)c1C(=O)NCc1ccc(Cl)cc1 -14.9%, Cc1ccc2c(c1)c1c(c(=O)n(-c3ccccc3C)c(=O)n1CC(=O)N1CCCC1)n2C -15.2%, Cc1ccc2ncc3c(-c4ccc(F)cc4)nn(-c4cccc(F)c4)c3c2c1 -0.318%, CCOc1ccccc1CNCCNC(=O)c1nonc1N -7.73%, COc1cc(NS(=O)(=O)c2cnc(N)nc2)cc(OC)c1 -8.54%, Cc1nc(-c2ccc(S(=O)(=O)Nc3ccc(C#N)cc3)cc2)co1 -31.4%, COC(=O)c1ccc(NC(=O)CSc2nc(C)cc(C)c2C(=O)Nc2ccccc2)cc1 -9.78%, CCc1cccc(NC(=O)c2cn3c4c(ccc(Cl)c4c2=O)OC(C)C3)c1 (centres undefined) -8.34%, COc1ccc(N2CCN(C(=O)c3cccc(-n4c(C)nc5cccnc54)c3)CC2)cc1 -10.8%, COc1cc2cc(CNc3ccccc3)c(=O)n(CC(=O)Nc3ccccc3)c2cc1OC -18.8%, O=C(NCCC1=CCCCC1)c1ccc2c(c1)N(Cc1ccccc1F)C(=O)c1ccccc1S2=O (centres undefined) 2.53%, CCc1cccc(-n2c(=O)c3cccnc3n2CC(=O)NCc2ccccc2)c1 -21.1%, CCn1nnc2cc(C(=O)Nc3ccc(Cl)cc3C)ccc21 -6.19%, CCCNS(=O)(=O)c1ccc2nc(NC(=O)c3ccc(F)cc3)sc2c1 -7.15%, COc1cc(C(=O)OCc2cc(=O)n3nc(C4CCCCC4)sc3n2)cc(OC)c1OC 3.6%, CCOC(=O)c1cc(C)n(CC2CCC(C(=O)Nc3ccc(C(C)=O)cc3)CC2)c1C (centres undefined) -20.5%, CCN(CC)c1nc2c(-c3cccc(Br)c3)nnn2c2ccccc12 -9.86%, CCN1CCN(C(c2ccc(OC)cc2)c2c(O)cc(C)n(Cc3ccco3)c2=O)CC1 (centres undefined) -4.93%, COc1ccc(CNC(=O)c2ccc(NC(=O)N3CC4CCCN4c4ccccc43)cc2)cc1 (centres undefined) -12.2%, COc1cccc(NC(=O)C2CCN(S(=O)(=O)c3cccc4nonc34)CC2)c1 -12%, COc1cccc(NC(=O)Cn2c(=O)cc(C)c3c(C)nn(-c4cccc(F)c4)c32)c1 -5.43%, CC1CCCCN1C(=O)Cn1c(=O)n(-c2ccc(Cl)cc2)c(=O)c2c3c(sc21)CCC3 (centres undefined) -13.6%, Cc1ccc(-n2ncc(C(=O)NCCc3ccccc3)c2C2CCN(C(=O)OC(C)(C)C)CC2)c(C)c1 -11.3%, Cc1ccc2c(=O)cc(C(=O)Nc3ccc(S(=O)(=O)N4CCC(C)CC4)cc3)oc2c1C -5.38%, CC(=O)OCC(=O)[C@H]1CC[C@H]2[C@@H]3CCC4=CC(=O)CC[C@]4(C)[C@H]3CC[C@]12C -7.92%, Cc1ccc(Nc2c(-c3ccc(N(C)C)cc3)nc3nc[nH]n23)cc1 -18.2%, COCCCn1c(=N)c(C(=O)NCC2CCCO2)cc2c(=O)n3cc(C)ccc3nc21 (centres undefined) -9.7%, CSc1nc(=O)c2c(n1C)NC(=O)CC2c1ccccc1OC(C)C (centres undefined) -10%, COc1ccc(-c2nc3ccccc3n3c(-c4cccc(C)c4)c4c(=O)n(C)c(=O)n(C)c4c23)cc1 -34.4%, COc1cc(C2CC(=O)Nc3c2c(C)nn3-c2nc(C)cc(C)n2)cc(OC)c1O (centres undefined) -7.08%, O=C(Cc1ccccc1)Nc1sc2c(c1C(=O)Nc1ccccc1)CCCCC2 3.3%, Cc1ccc(CSc2nnc(-n3c(=O)c(C#N)cc4c(=O)n5cccc(C)c5nc43)s2)cc1 2.04%, COc1cccc(-c2nn3c(=O)cc(CN4CCN(S(=O)(=O)c5ccc(C)cc5)CC4)nc3s2)c1 -23.3%, COc1cccc(CNCCSc2nnnn2C)c1OCc1ccccc1 -16.1%, COC(=O)CC1Oc2ccccc2-n2cc(-c3ccc(C)cc3)nc21 (centres undefined) -0.275%, CSc1ccc(CNC(=O)C2CCCN(S(=O)(=O)N(C)c3ccc(F)cc3)C2)cc1 (centres undefined) -8.64%, COc1cccc(-c2cn3c(n2)sc2cc(C(=O)NCCCc4ccccc4)ccc23)c1 -4.31%, CCOc1ccc(CCNC(=O)CCCn2c(=O)c3cccn3c3cccnc32)cc1OCC -10%, CCc1ccc2c(c1)c(=O)c(S(=O)(=O)c1ccc(Cl)cc1)cn2CC -14.2%, O=C(CC1(O)C(=O)N(CCc2ccccc2)c2ccc(Br)cc21)c1ccc(F)cc1 (centres undefined) -9.33%, COc1ccc(OCC(=O)Nc2cc(-c3ccccc3F)nn2-c2ccccc2)cc1 -18.7%, CCCn1ccc2c(OCC(=O)Nc3cc(C)ccc3C)cccc2c1=O -11.1%, Cc1ccc(S(=O)(=O)NCC2CCC(C(=O)NCc3ccc(F)cc3)CC2)cc1 (centres undefined) -13.2%, CCc1ccc(CNC(=O)c2cc3cc(S(=O)(=O)N4CCCCC4)ccc3n2C)cc1 -2.45%, Nc1c(C(=O)NCc2ccc(Cl)cc2Cl)nnn1Cc1ccc(Br)cc1 0.508%, Cc1ccc(Nc2nnc(-c3ccc(C)c(S(=O)(=O)N4CCN(C)CC4)c3)c3ccccc23)cc1 1.39%, CCC1CN(C(=O)N2CCC(C(=O)NCCc3ccccc3Cl)CC2)c2cc(C)ccc2O1 (centres undefined) 12.2%, COc1cc(NC(=O)CN2c3ccccc3S(=O)(=O)c3ccccc32)cc(OC)c1 -6.03%
